Reference: PubChem BioAssay AID492949 (National Center for Advancing Translational Sciences (NCATS), 2010)
Inconclusive results, whose numbers are uncertain, are shown with a selection of clear calls. A potency beside an inconclusive call is a rough fit, not a confirmed value. Activity calls are given as the source filed them. Calls come from the whole dose curve; as a rule, active = well fitted activation curve with a large enough effect; inconclusive = small, poorly fitted or top-dose-only effect; inactive = no such curve, though single readings can be large or run the other way.

target: Relaxin receptor 1 (Homo sapiens) (UniProt Q9HBX9); experiment: qHTS Assay for Agonists of the Relaxin Receptor RXFP1: THP1 Hit Validation; details: THP1-RXFP1 cells, cAMP TR-FRET, 30 min; series mostly up to 115 µM; note: nearly all actives have a fitted effect of over 60% in size
Chain of UniProt Q9HBX9 (Q9HBX9 whole entry, looked up): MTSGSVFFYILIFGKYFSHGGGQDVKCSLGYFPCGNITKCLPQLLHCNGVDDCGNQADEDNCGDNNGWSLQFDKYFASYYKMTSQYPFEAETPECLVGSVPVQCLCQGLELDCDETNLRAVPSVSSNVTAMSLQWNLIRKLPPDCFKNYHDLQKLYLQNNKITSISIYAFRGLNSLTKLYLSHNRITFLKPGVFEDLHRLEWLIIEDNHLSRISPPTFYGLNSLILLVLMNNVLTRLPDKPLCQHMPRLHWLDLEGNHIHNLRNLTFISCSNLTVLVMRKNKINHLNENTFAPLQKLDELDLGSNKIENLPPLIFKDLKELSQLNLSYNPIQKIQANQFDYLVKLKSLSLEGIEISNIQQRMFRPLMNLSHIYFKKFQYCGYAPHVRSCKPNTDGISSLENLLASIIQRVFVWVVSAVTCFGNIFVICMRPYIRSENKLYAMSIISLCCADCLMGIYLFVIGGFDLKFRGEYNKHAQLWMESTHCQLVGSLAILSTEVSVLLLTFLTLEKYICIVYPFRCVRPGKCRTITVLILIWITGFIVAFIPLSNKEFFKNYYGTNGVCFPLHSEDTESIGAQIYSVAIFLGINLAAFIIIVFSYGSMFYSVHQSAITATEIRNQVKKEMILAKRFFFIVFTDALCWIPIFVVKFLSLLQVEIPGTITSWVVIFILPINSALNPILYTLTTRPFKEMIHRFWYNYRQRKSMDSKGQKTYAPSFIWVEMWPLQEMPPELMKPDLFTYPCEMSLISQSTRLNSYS
Procedure, shortened: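 EC50s come from Hill-equation fits of data normalized between buffer (basal) and 29 nM porcine relaxin (100%). cAMP was measured by competitive TR-FRET in lysates of RXFP1-transfected THP1 cells after 30 min compound exposure, with Ro 20174 present.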
Potency is the fitted concentration of half-maximal effect; tags give direction and shape of the fitted curve.

SMILES	Potency
COc1cc(-c2nnc(SCC(=O)N(C)C3CCS(=O)(=O)C3)o2)cc(OC)c1OC (stereo unspecified)	inconclusive: 30.8 µM [activator, partial curve, poor fit]
S=c1nc[nH]c2c1[nH]c1ccccc12	active: 7.74 µM
CCOC(=O)CCCCC(=O)c1[nH]c(=O)[nH]c1CSc1nnc2c3cc(Br)ccc3n(C)c2n1	active: 8.68 µM
C=CCNC(=O)NC(=O)COC(=O)c1nc2nccc(C)n2n1	inconclusive: 38.9 µM [activator, partial curve]
COc1cccc(NC(=O)Cn2c3ccc(OC)cc3c3nc4n(c(=O)c32)CCS4)c1	inconclusive: 3.09 µM [activator, full curve, poor fit]
O=S(=O)(c1cccc(-c2cn3cccnc3n2)c1)N1CCOCC1	active: 13.8 µM
